Source: publication PMC4336329 (PLoS ONE, 2015)
Screen size: about 310,000 compounds; about 2,200 (0.71%) showed an effect of 50% or more. The effect is printed as a negative number. The list shows a part of the results.

Molecular target: human ether-à-go-go-related gene (hERG) potassium channel (human, UniProt Q12809)
Experiment: primary screen, population patch clamp on CHO cells stably expressing hERG

Sequence of human ether-à-go-go-related gene (hERG) potassium channel (Q12809 whole entry, looked up): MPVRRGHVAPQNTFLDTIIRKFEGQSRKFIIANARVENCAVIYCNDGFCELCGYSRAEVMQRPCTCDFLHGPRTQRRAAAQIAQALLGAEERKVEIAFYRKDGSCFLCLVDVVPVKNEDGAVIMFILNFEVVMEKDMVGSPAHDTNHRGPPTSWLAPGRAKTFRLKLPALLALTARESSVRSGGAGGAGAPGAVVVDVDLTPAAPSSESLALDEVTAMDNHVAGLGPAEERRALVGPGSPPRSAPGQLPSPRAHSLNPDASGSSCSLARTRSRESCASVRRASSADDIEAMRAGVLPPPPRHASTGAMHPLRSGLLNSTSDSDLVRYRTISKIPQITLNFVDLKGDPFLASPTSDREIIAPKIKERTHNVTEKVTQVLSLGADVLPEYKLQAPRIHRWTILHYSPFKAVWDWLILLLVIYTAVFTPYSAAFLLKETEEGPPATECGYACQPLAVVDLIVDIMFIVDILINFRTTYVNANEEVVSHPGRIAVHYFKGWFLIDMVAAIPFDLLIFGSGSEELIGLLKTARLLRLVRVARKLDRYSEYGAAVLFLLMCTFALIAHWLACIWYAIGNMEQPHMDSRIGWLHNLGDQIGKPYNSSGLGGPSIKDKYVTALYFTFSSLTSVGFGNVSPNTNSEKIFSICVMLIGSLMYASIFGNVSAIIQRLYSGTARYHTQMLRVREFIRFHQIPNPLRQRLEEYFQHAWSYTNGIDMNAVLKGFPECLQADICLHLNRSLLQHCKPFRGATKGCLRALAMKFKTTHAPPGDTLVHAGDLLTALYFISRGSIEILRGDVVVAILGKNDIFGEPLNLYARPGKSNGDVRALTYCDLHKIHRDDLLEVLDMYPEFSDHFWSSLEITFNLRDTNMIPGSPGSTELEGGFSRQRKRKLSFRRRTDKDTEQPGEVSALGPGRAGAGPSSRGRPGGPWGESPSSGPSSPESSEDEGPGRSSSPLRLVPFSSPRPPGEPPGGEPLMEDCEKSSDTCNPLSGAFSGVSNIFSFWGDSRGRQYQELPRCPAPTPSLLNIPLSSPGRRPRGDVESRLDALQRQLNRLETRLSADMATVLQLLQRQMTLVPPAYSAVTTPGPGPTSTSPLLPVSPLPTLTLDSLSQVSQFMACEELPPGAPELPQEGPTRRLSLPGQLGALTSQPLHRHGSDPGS

SMILES	hERG current change (%, negative = inhibition) at 1uM [%]
Cc1ccc(NS(=O)(=O)c2c(C(=O)N3CCCC3)c(C)n(C)c2C)cc1	5.94
COc1cc(OC)c(OC)cc1CN1CCN(c2ccc(F)cc2)CC1	-37
O=C(CN1CCN(c2ccccn2)CC1)Nc1ccccc1C(=O)Nc1ccccc1	-10.3
CCOC(=O)C1=NN(C(=O)COc2ccccc2)C(O)(c2ccc(Br)cc2)C1 (stereo not drawn)	-3.14
CCN(C(=O)CN1CCN(c2ccccc2F)CC1)c1c(N)n(Cc2ccccc2)c(=O)[nH]c1=O	5.07
Cc1cc(OCC(=O)NCCN2CCOCC2)ccc1Br	4.41
CCOC(=O)N1CCN(C(=O)C(c2ccccc2)c2ccccc2)CC1	12.8
C(=N\n1cnnc1)/c1cn(-c2cccs2)nc1-c1ccccc1	-3.47
CCS(=O)(=O)c1ncc(CO)n1CCc1ccccc1	10.1
CCOC(=O)c1oc2ccccc2c1NC(=O)c1ccc(Cl)s1	11.8
CCCn1c2ccccc2c2cnn(CC(=O)NCCN(C)C)c(=O)c21	-12.5
CCOC(=O)CN(C(=O)COC(=O)C1(c2ccccc2)CC1)c1ccc(F)cc1	24.2
CC1(C)Cc2c(sc3nc(SCC(=O)O)[nH]c(=O)c23)CO1	10.1
Cc1sc2ncnc(Sc3ccccc3C(=O)Nc3ccccc3Cl)c2c1C	1.08
c1ccc(CCc2nc3ccccc3[nH]2)cc1	15
Cc1ccc(S(=O)(=O)CCC(=O)NCc2ccccc2)cc1	10.1
Cl.N=c1n(CCO)c2ccccc2n1Cc1ccccc1Cl	-5.09
COc1ccccc1-c1ccc(SCc2ccc(F)cc2)nn1	5.39
O=C(NC(Cc1ccccc1)C(=O)O)/C(=C/c1ccc(Cl)cc1)NC(=O)c1ccco1 (stereo not drawn)	18
CCn1c(=O)c(C(=O)NCc2ccccn2)c(O)c2ccccc21	10.1
CCOC(=O)CC(=O)CSc1nnc(Cn2c(=O)sc3ccccc32)n1C	12.9
COc1cc2nc(N3CCN(C(=O)c4ccco4)CC3)nc(N)c2cc1OC.Cl	-5.21
CCn1nc(-c2ccccc2)nc2c(=O)n(C)c(=O)nc1-2	-7.24

SMILES	hERG current change (%, negative = inhibition) at 1uM [%]
CCOC(=O)c1cc2c(=O)n3ccccc3nc2n(CC2CCCO2)c1=NC(C)=O (stereo not drawn)	16.6
COc1ccc(C(=O)N2CCN(C(=O)Cc3ccccc3)CC2)cc1.O=C(O)C(=O)O	0.55
Cc1nc(SCC(=O)N2CCC(Cc3ccccc3)CC2)[nH]c(=O)c1C	-5.21
O=C(CCS(=O)(=O)c1ccc(Cl)cc1)Nc1nnc(-c2ccco2)o1	8.43
COc1ccc(CN(CCC#N)CCC2(c3ccccc3)CC(C)N(C)CC2C)cc1OC.Cl (stereo not drawn)	13.2
Cc1ccc(NC(=O)COC(=O)CCc2nc3ccccc3c(=O)[nH]2)cc1Cl	20.7
Oc1ccc(-c2cn3c(n2)SCC3)cc1O	-2.21
O=S(=O)(c1ccc(F)cc1)N1CCN(CCc2ccccc2)CC1	6.18
O=C(Cn1ccnc1[N+](=O)[O-])NCc1ccccc1	3.91
O=C(C1CC1)N1CCc2cc(S(=O)(=O)NCC3COc4ccccc4O3)ccc21 (stereo not drawn)	10
CC(C)c1cccc(C(C)C)c1OC(=O)[C@H]1OC(C(C)(C)C)=C[C@@H]1c1ccccc1	-4.09
O=C(COc1ccc(Cl)cc1Cl)NC(=S)Nc1ccc(CN2CCOCC2)cc1	6.56
COc1ccc(CCN(C)C2CCCN(S(=O)(=O)c3ccccc3)C2)cc1OC (stereo not drawn)	-64.9
Oc1ccccc1N1CCN(c2ncccn2)CC1	7.73
Cn1c(SCCC#N)nnc1-c1ccc(F)cc1	8.2
COc1ccc(/C=N/N2CCN(Cc3ccc(C)cc3)CC2)cc1Br	15.1
CC(C)=CCN1CCN(CCCn2cccn2)CC1CCO (stereo not drawn)	1.54
Nc1c(Cl)cc(Cl)cc1C(=O)OCC(=O)N1CCCC1=O	10.5
Cc1cccc(CCNC(=O)C2CCCN(c3ncnc4c3nc3n4CCCCC3)C2)c1 (stereo not drawn)	-4.17
O=C(NC1CCN(C(=O)Nc2cccc(Cl)c2)CC1)c1ccco1	4.86
O=C(N/N=C\c1ccc(-c2ccc([N+](=O)[O-])cc2)o1)C1COc2ccccc2O1 (stereo not drawn)	12.5
CCNC(=S)N1CCN(CC(=O)Nc2ccc(Br)cc2)CC1	-30.5
CCOc1ccc(NC(=O)CSc2nc(-c3cccs3)cc(C(F)(F)F)n2)c([N+](=O)[O-])c1	0.249

SMILES	hERG current change (%, negative = inhibition) at 1uM [%]
COc1ccc(C(=O)OCC(=O)Nc2sccc2C(N)=O)cc1OC	0.856
COc1cc(/C=N/O)ccc1OCc1ccc([N+](=O)[O-])cc1	-3.66
CC(=O)c1cccc(NC(=O)c2cc(S(=O)(=O)N3CCOCC3)cs2)c1	13.8
CN1CCN(S(=O)(=O)c2cc([N+](=O)[O-])ccc2N2CCCCCC2)CC1	-0.0485
N#CCC(=O)Nc1ccc(C(=O)OCC(=O)NC2CCCCCC2)cc1	14.1
Cc1nc(NCCc2ccccc2)c(C#N)c(C)c1[N+](=O)[O-]	14.9
CNS(=O)(=O)c1cccc(C(=O)OCC(=O)N(Cc2ccccc2)C(C)(C)C)c1	16.1
CCC(CC)NC(=O)c1cc2c(C)nn(Cc3ccccc3Cl)c2s1	9.52
NNc1nc(-c2ccccc2)cc(-c2ccccc2)n1	18.4
CCc1cc(C(=O)OC)c(NC(=O)CCC(=O)O)s1	4.17
COc1ccc(Cc2noc(CN3CCN(c4ccc(Cl)cn4)CC3)n2)cc1OC	7.29
Br.CCCCC1(C(=O)OCC)CC(CSC(=N)N)OC1=O (stereo not drawn)	7.06
O=C1N(Cc2cccnc2)C[C@@H]2C[C@@H](c3ccc4nsnc4c3)N3CCC[C@@]123	-1.94
N#Cc1c(/N=C/c2ccco2)sc2c1CCCCC2	-1.22
O=C(CCCC1=NS(=O)(=O)c2ccccc2N1)OCc1ccc(Cl)cc1	-0.477
COc1ccccc1S(=O)(=O)Cc1ccc(C(=O)NCc2ccc3c(c2)OCO3)o1	6.9
N=c1c(C(=O)NCc2ccc(F)cc2)cc2c(=O)n3ccccc3nc2n1CC1CCCO1 (stereo not drawn)	-85.3
CCN1CCN(C(=O)CN(c2ccccc2C)S(C)(=O)=O)CC1	9.16
FC(F)(F)c1ccc(CN2CCCCCC2)cc1	2.7
Cc1n[nH]c(C)c1Sc1ccccc1N=Cc1cc(Cl)cc([N+](=O)[O-])c1O	2.48
CC(C(=O)c1ccc(-c2ccccc2)cc1)[n+]1cccc(NC(=O)c2ccccc2)c1.[Br-] (stereo not drawn)	1.33
C=CC(=O)N=c1sc2ccccc2n1-c1ccccc1	12.3
COC(=O)c1c(NC(=O)c2ccccc2F)sc2c1C(C(=O)OC)CC2 (stereo not drawn)	14.6

SMILES	hERG current change (%, negative = inhibition) at 1uM [%]
O=C(NCC(c1cccs1)N1CCOCC1)c1cc(S(=O)(=O)N2CCOCC2)c(Cl)cc1Cl (stereo not drawn)	6.08
CCC(C)NC(=O)c1cc(-c2ccccc2O)on1 (stereo not drawn)	8.15
COc1cc(/C=C(/C#N)C(=O)NCCCc2ccccc2)ccc1OCC(=O)O	11.7
O=C(NO)c1ccc(C(=O)N(C2CCCCC2)C2CCCCC2)cc1	3.06
Cc1cc(N2C(=O)c3ccccc3C2=O)n(C)n1	6.71
Cc1nc2[nH]onc2c2nccc(=O)c12	16.6
Cc1cc(C)n(-c2ccc(NC(=O)C3CCCCN3C(=O)c3sccc3C)cc2)n1 (stereo not drawn)	24.1
CCCSc1nc2c(c(=O)n(C)c(=O)n2C)n1Cc1ccc(C)cc1	7.28
CC(C)Oc1cccc(C(=O)NC(=S)Nc2cccnc2)c1	7.01
COc1ccc(Cc2nnc(SCC(=O)Nc3nc(C)cs3)o2)cc1	-0.837
Cc1cc2ccccc2n1CCNC(=O)C1CC1	-6.82
COCCN(C(=O)COC(=O)c1ccc(Cl)nc1)c1c(N)n(Cc2ccccc2)c(=O)[nH]c1=O	13.1
O=C(Nc1ccccc1)Nc1ccccc1C(=O)NCC1CC1	12.7
COc1ccc(CC(=O)OCC(=O)c2ccc(OC)cc2)cc1	6.08
CNc1snc(C)c1C(=O)OCC(=O)c1ccc(Cl)cc1	7.88
Cc1ccccc1NC(=S)N1CCCCCC1	10.8
Nc1c(C(=O)O)nnn1Cc1ccccc1	10.1
O=c1oc2ccccc2cc1-c1cn2ccccc2n1	8.38
O=C(CNS(=O)(=O)c1ccc(Br)s1)N1CCN(C(=O)c2ccco2)CC1	-10.5
Cc1cccc(Cl)c1NC(=S)NN	4.59
Cc1ccnc(NCn2nnc3ccccc32)c1	15.6
